Experimental data: PubChem BioAssay AID1634 (National Center for Advancing Translational Sciences (NCATS), 2009)
The campaign covered roughly 260,000 compounds. About 150 (0.058%) were called active. Inconclusive means that the source gave no clear call. Such entries were picked first, then a sample of the others. The call rests on the fitted dose curve; in most records, active means well fitted inhibition curve with a large enough effect; inconclusive means small, poorly fitted or top-dose-only effect; inactive means no such curve, though single readings can be large or run the other way. Potencies beside an inconclusive call are fits to weak or partial responses and may not hold up.

target: Pyruvate kinase PKM (Homo sapiens) (UniProt P14618); test: qHTS Assay for Inhibitors of Human Muscle isoform 2 Pyruvate Kinase; conditions: purified PKM2, ATP generation, Kinase-Glo luminescence; series mostly up to 57.5 µM; activity change, negative = inhibition: at the top concentration; further: nearly all actives have a fitted effect of over 60% in size;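 on activity change, negative = inhibition: plate controls were uninhibited enzyme wells for no effect and no-enzyme wells for full effect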
Method in brief: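 Coupled luciferase luminescence (Kinase-Glo) detects ATP generated from 0.1 mM ADP and 0.5 mM PEP in imidazole buffer pH 7.2 with KCl, MgCl2; 1 h at room temperature. Enzyme at intermediate activity; normalized to uninhibited and no-enzyme controls.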
Potency means the concentration at half of the fitted maximal effect; tags describe the fitted curve by direction and shape.

Sequence of UniProt P14618 (P14618 whole entry, looked up, canonical isoform): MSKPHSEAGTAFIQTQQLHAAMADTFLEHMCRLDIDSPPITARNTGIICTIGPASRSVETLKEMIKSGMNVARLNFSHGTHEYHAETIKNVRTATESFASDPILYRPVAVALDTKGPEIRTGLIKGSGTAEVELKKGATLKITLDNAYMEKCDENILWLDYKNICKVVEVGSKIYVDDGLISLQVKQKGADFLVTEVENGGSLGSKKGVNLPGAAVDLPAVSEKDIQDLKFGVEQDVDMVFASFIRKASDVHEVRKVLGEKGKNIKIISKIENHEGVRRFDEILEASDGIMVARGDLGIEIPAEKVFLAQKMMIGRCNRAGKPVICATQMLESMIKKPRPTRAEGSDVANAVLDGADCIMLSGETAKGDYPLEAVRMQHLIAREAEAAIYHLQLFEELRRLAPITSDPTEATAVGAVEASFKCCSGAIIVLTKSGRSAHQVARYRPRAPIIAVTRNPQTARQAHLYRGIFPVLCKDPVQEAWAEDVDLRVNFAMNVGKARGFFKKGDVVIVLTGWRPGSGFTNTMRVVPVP

Potency, inconclusive:
O=C(/C=C/Nc1cccc(O)c1)c1ccccc1 20 µM [falling, single point]
COc1cc(SSc2cc(OC)cc([N+](=O)[O-])c2N)c(N)c([N+](=O)[O-])c1 28.2 µM [falling, single point]
CC(=O)n1c2ccccc2c2nc(NC(C)C)sc21 10 µM [falling, single point]
CC(=O)c1ccc(-c2nc3ccccc3n2C)o1 17.8 µM [falling, partial curve]
CCc1ccc(-c2cc(C(=O)Nn3cnnc3)c3ccccc3n2)cc1 28.2 µM [falling, single point]
CCSc1nc2ccc(C)cc2cc1C#N 39.8 µM [falling, single point]
COc1ccc(/C=C/c2cc(C(=O)O)c3ccccc3n2)cc1 35.5 µM [falling, single point]
CCn1c(NCCO)nc2c(c1=O)C(C)(CC)Cc1ccccc1-2 (stereo not drawn) 35.5 µM [falling, single point]
COc1cccc2cc(C(C)N(CCCN3CCOCC3)C(=O)Nc3ccccc3)oc12 (stereo not drawn) 31.6 µM [falling, single point]
O=c1c(Cl)c(NCCO)cnn1-c1cccc(Cl)c1 8.91 µM [falling, single point]
CSc1ccc(/C=C/c2ccc3cccc(O)c3n2)cc1 31.6 µM [falling, single point]
COc1ccccc1NC(=O)CCc1nc2ccccc2s1 39.8 µM [falling, single point]
CN(C(=O)NC1CCCCC1)c1ccccc1 25.1 µM [falling, single point]
CN1CCN(NC(=O)c2ccc(COc3ccccc3Br)o2)CC1 3.16 µM [falling, single point]
Cc1ccc(-n2[nH]c(C)c(C=Nc3ccc(Br)cn3)c2=O)cc1 3.98 µM [falling, full curve, poor fit]
C/C(=N\NC(=O)c1ccccc1O)c1cccs1 28.2 µM [falling, single point]
COc1cc(/C=C/C(=O)OCC(=O)Nc2ccccc2Cl)cc(OC)c1OC 39.8 µM [falling, single point]
Cc1cc(C(=O)Nc2ccc(OCc3ccccc3)cc2)c(C)o1 15.8 µM [falling, partial curve]
Cc1cc(-n2c(C)cc(C(=O)CSc3ccc4c(c3)OCCO4)c2C)no1 17.8 µM [falling, partial curve]
O=C(CN1CCN(Cc2ccccc2)CC1)Nc1nnc(C(F)(F)F)s1 39.8 µM [falling, single point]
N/C(=N/OC(=O)c1ccccc1Cl)c1nonc1N 35.5 µM [falling, single point]
CC1CC(C(F)(F)F)n2ncnc2N1 (stereo not drawn) 0.794 µM [falling, single point]
COc1ccccc1OCC(=O)Nc1ccccn1 31.6 µM [falling, single point]
O=C(O)CC1(c2ccccc2)C(=O)c2ccccc2C1=O 1.12 µM [falling, partial curve]
CC(=O)c1ccc(O)c(CO)c1 28.2 µM [falling, single point]
FC(F)(F)c1ccccc1NC(=S)N1CCc2ccccc2C1 5.01 µM [falling, single point]
CCOC(=O)c1ccc(-c2ccc3c(=O)c4ccccc4n(C)c3c2)cc1F 11.2 µM [falling, partial curve]
CSc1nc(C)c2cc(C)oc2n1 1.58 µM [falling, partial curve, poor fit]
Cc1ccc2c(c1)c1nnc(SCC(=O)N3CCCc4ccccc43)nc1n2CC(=O)O 15.8 µM [falling, partial curve]
Cc1ccnc(Nc2nc3ccccc3o2)n1 11.2 µM [falling, partial curve, poor fit]
O=C1C=CC(=O)C2=C1C1c3ccccc3C2c2ccccc21 17.8 µM [falling, partial curve]
CCN1/C(=C/C=C/C=C/c2sc3ccccc3[n+]2CC)Sc2ccccc21 25.1 µM [falling, partial curve]
CCc1c(C)sc(NC(=O)c2ccoc2C)c1C(N)=O 35.5 µM [falling, single point]
FC(F)(F)c1cccc(-c2nc3nc(Cl)c(Cl)nc3[nH]2)c1 14.1 µM [falling, partial curve]
CC(=O)Nc1ccc(NC(=O)CNC(=O)COc2ccccc2)cc1 39.8 µM [falling, single point]

Potency, active:
Cc1occc1C(=O)N/N=C/c1ccc(N(C)C)cc1 14.1 µM
COc1ccc(-c2ccc(SC)nn2)cc1 10 µM

Activity change, negative = inhibition, inactive:
O=C1ON=C(c2ccccc2)/C1=C/c1ccc(OS(=O)(=O)c2ccccc2)cc1 41.1%
Cc1ccc2nc(SC(C)C(=O)NCc3ccc4c(c3)OCO4)[nH]c2c1 (stereo not drawn) 43.9%
CCn1c(=NC(=O)CSC(C)=O)sc2cc(F)ccc21 50%
COc1ccc(C(=O)CCc2ccccc2O)c(OC)c1 30.3%
O=c1c(Cc2ccc(Cl)cc2)c(O)ccn1Cc1ccncc1 107%
Cn1cccc1/C=N/N1CCN(c2ccccn2)CC1 44.2%
CC(=O)Nc1ccc(/C(C)=N/Nc2nc(Nc3cccc4ccccc34)nc(N3CCOCC3)n2)cc1 33.8%
Cc1cc(N2CCN(S(=O)(=O)c3ccc4ccccc4c3)CC2)n2ncnc2n1 61.7%
O=C(Cn1cc(C(F)(F)F)ccc1=O)N1CCN(S(=O)(=O)c2ccccc2)CC1 -0.493%
Cc1cc2oc(=O)sc2cc1NS(=O)(=O)c1cccc2cccnc12 80.5%
NC(=O)c1oc2ccccc2c1NC(=O)CCc1ccccc1 5.5%
